# Measured values taken from the supplement of paper PMC10037445.
# In all, about 2,900 compounds were measured (“NF-kB SEAP reporter activity, fold change vs agonist alone”: median about 0.99, highest 2% from about 2.6 on). Some of the results follow.
# Assays:
# RAW-Dual [1] = test: NF-kB SEAP reporter activity, fold change vs agonist alone; higher = enhanced NF-kB activity; details: library stock concentration (final ~1000-fold dilution): 10 mM
# Method in brief: (§1)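 Supernatant from RAW-Dual macrophages was read after 20 hours for IRF by QuantiLuc luminescence and for NF-κB by QuantiBlue absorbance at 620 nm. The cells (50,000 cells/well in DMEM, 384-well plates, 37 °C, 5% CO2) had received 50 nL of library stock by pin tool and, 1 h later, a PRR agonist. Reporter activity is expressed relative to agonist-alone wells as fold change, and wells were flagged cytotoxic if IncuCyte confluency was under 70% of agonist controls in both mask sets.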
# RAW-Dual [2] = test: NF-kB SEAP reporter activity, fold change vs agonist alone; cytotoxicity flag (confluency mask): cytotoxic (confluency <70% of control); higher = enhanced NF-kB activity
# Method in brief: as §1
# RAW-Dual [3] = test: NF-kB SEAP reporter activity, fold change vs agonist alone; cytotoxicity flag (confluency mask): not cytotoxic; higher = enhanced NF-kB activity
# Method in brief: as §1
# [4] = cytotoxicity flag (confluency mask): cytotoxic (confluency <70% of control), agonist: MPLA (TLR4) […]
# [5] = cytotoxicity flag (confluency mask): cytotoxic (confluency <70% of control), agonist: Imiquimod (TLR7) […]
# [6] = agonist: ODN 1826 (TLR9) 0.5 ug/mL
# [7] = agonist: Pam2CSK4 (TLR2/6) 0.1 ug/mL
# [8] = agonist: Pam3CSK4 (TLR2/1) 0.1 ug/mL
# [9] = cytotoxicity flag (confluency mask): not cytotoxic, agonist: Imiquimod (TLR7) […]
# [10] = cytotoxicity flag (confluency mask): not cytotoxic, agonist: MPLA (TLR4) […]
smiles,measurement,setting,value
CC(=O)Oc1cc(C)c(OC(C)=O)c2ccccc12,NF-kB SEAP reporter activity,RAW-Dual [1]; [4],0.207
COc1cc2ncnc(Nc3ccc(F)c(Cl)c3)c2cc1NC(=O)/C=C/CN1CCCCC1,NF-kB SEAP reporter activity,RAW-Dual [1]; [5],2.28
same,NF-kB SEAP reporter activity,RAW-Dual [1]; [4],1.52
COc1cc2ncnc(Nc3ccc(F)c(Cl)c3)c2cc1NC(=O)/C=C/CN1CCCCC1 (library stock concentration (final ~1000-fold dilution): 10 mM),NF-kB SEAP reporter activity,RAW-Dual [2]; agonist: LPS (TLR4) 0.1 ug/mL,0.266
same,NF-kB SEAP reporter activity,RAW-Dual [2]; [6],0.26
same,NF-kB SEAP reporter activity,RAW-Dual [2]; [7],0.179
same,NF-kB SEAP reporter activity,RAW-Dual [2]; [8],0.384
CC(C)CCn1c(CN2CCN(C(=O)C3CC3)CC2)nc2c1c(=O)n(C)c(=O)n2C,NF-kB SEAP reporter activity,RAW-Dual [1]; [9],0.935
same,NF-kB SEAP reporter activity,RAW-Dual [1]; [10],0.995
CC(C)CCn1c(CN2CCN(C(=O)C3CC3)CC2)nc2c1c(=O)n(C)c(=O)n2C (library stock concentration (final ~1000-fold dilution): 10 mM),NF-kB SEAP reporter activity,RAW-Dual [3]; agonist: LPS (TLR4) 0.1 ug/mL,0.909
same,NF-kB SEAP reporter activity,RAW-Dual [3]; [6],0.963
same,NF-kB SEAP reporter activity,RAW-Dual [3]; [7],0.957
same,NF-kB SEAP reporter activity,RAW-Dual [3]; [8],1.13
O=C(O)CCC1CCC(c2cc(F)ccc2F)(S(=O)(=O)c2ccc(Cl)cc2)CC1 (configuration not stated),NF-kB SEAP reporter activity,RAW-Dual [1]; [9],0.954
same,NF-kB SEAP reporter activity,RAW-Dual [1]; [10],1.13
O=C(O)CCC1CCC(c2cc(F)ccc2F)(S(=O)(=O)c2ccc(Cl)cc2)CC1 (configuration not stated) (library stock concentration (final ~1000-fold dilution): 10 mM),NF-kB SEAP reporter activity,RAW-Dual [3]; agonist: LPS (TLR4) 0.1 ug/mL,1.2
same,NF-kB SEAP reporter activity,RAW-Dual [3]; [6],1.14
same,NF-kB SEAP reporter activity,RAW-Dual [3]; [7],1.17
same,NF-kB SEAP reporter activity,RAW-Dual [3]; [8],1.05
NS(=O)(=O)C#Cc1ccccc1,NF-kB SEAP reporter activity,RAW-Dual [1]; [9],1.65
same,NF-kB SEAP reporter activity,RAW-Dual [1]; [10],0.392
NS(=O)(=O)C#Cc1ccccc1 (library stock concentration (final ~1000-fold dilution): 10 mM),NF-kB SEAP reporter activity,RAW-Dual [3]; agonist: LPS (TLR4) 0.1 ug/mL,0.198
same,NF-kB SEAP reporter activity,RAW-Dual [3]; [6],0.437
same,NF-kB SEAP reporter activity,RAW-Dual [3]; [7],0.143
same,NF-kB SEAP reporter activity,RAW-Dual [3]; [8],0.28
C=CC(=O)Nc1cccc(Oc2nc(Nc3ccc(N4CCN(C)CC4)c(F)c3)nc3[nH]ccc23)c1,NF-kB SEAP reporter activity,RAW-Dual [1]; [5],0.14
same,NF-kB SEAP reporter activity,RAW-Dual [1]; [4],0.276
C=CC(=O)Nc1cccc(Oc2nc(Nc3ccc(N4CCN(C)CC4)c(F)c3)nc3[nH]ccc23)c1 (library stock concentration (final ~1000-fold dilution): 10 mM),NF-kB SEAP reporter activity,RAW-Dual [2]; agonist: LPS (TLR4) 0.1 ug/mL,0.479
same,NF-kB SEAP reporter activity,RAW-Dual [2]; [6],0.174
same,NF-kB SEAP reporter activity,RAW-Dual [2]; [7],0.112
same,NF-kB SEAP reporter activity,RAW-Dual [2]; [8],0.13
NC1CCCN(c2c(/C=C3\SC(=O)NC3=O)cccc2-c2ccccc2)C1 (configuration not stated),NF-kB SEAP reporter activity,RAW-Dual [1]; [9],1.83
same,NF-kB SEAP reporter activity,RAW-Dual [1]; [10],1.45
NC1CCCN(c2c(/C=C3\SC(=O)NC3=O)cccc2-c2ccccc2)C1 (configuration not stated) (library stock concentration (final ~1000-fold dilution): 10 mM),NF-kB SEAP reporter activity,RAW-Dual [3]; agonist: LPS (TLR4) 0.1 ug/mL,1.13
same,NF-kB SEAP reporter activity,RAW-Dual [3]; [6],1.23
same,NF-kB SEAP reporter activity,RAW-Dual [3]; [7],0.982
same,NF-kB SEAP reporter activity,RAW-Dual [3]; [8],1.63
CC(C)(C)c1cc(NC(=O)Nc2ccc(Oc3ccnc4[nH]c(=O)cnc34)cc2F)n(-c2ccccc2)n1 (library stock concentration (final ~1000-fold dilution): 10 mM),NF-kB SEAP reporter activity,RAW-Dual [2]; agonist: LPS (TLR4) 0.1 ug/mL,0.261
same,NF-kB SEAP reporter activity,RAW-Dual [2]; [6],0.18
same,NF-kB SEAP reporter activity,RAW-Dual [2]; [7],0.0633
same,NF-kB SEAP reporter activity,RAW-Dual [2]; [8],0.129
CC(C)(C)c1cc(NC(=O)Nc2ccc(Oc3ccnc4[nH]c(=O)cnc34)cc2F)n(-c2ccccc2)n1,NF-kB SEAP reporter activity,RAW-Dual [1]; [5],0.131
same,NF-kB SEAP reporter activity,RAW-Dual [1]; [4],0.26
CC(C)(O)CNc1nc(Nc2ccnc(C(F)(F)F)c2)nc(-c2cccc(C(F)(F)F)n2)n1,NF-kB SEAP reporter activity,RAW-Dual [1]; [9],1.19
same,NF-kB SEAP reporter activity,RAW-Dual [1]; [10],1.28
CC(C)(O)CNc1nc(Nc2ccnc(C(F)(F)F)c2)nc(-c2cccc(C(F)(F)F)n2)n1 (library stock concentration (final ~1000-fold dilution): 10 mM),NF-kB SEAP reporter activity,RAW-Dual [3]; agonist: LPS (TLR4) 0.1 ug/mL,1.51
same,NF-kB SEAP reporter activity,RAW-Dual [3]; [6],1.61
same,NF-kB SEAP reporter activity,RAW-Dual [3]; [7],1.09
same,NF-kB SEAP reporter activity,RAW-Dual [3]; [8],1.59
Cc1cc(Nc2ncc(Cl)c(Nc3ccccc3S(=O)(=O)C(C)C)n2)c(OC(C)C)cc1C1CCNCC1,NF-kB SEAP reporter activity,RAW-Dual [1]; [5],2.07
same,NF-kB SEAP reporter activity,RAW-Dual [1]; [4],0.569
Cc1cc(Nc2ncc(Cl)c(Nc3ccccc3S(=O)(=O)C(C)C)n2)c(OC(C)C)cc1C1CCNCC1 (library stock concentration (final ~1000-fold dilution): 10 mM),NF-kB SEAP reporter activity,RAW-Dual [2]; agonist: LPS (TLR4) 0.1 ug/mL,0.198
same,NF-kB SEAP reporter activity,RAW-Dual [2]; [6],0.674
same,NF-kB SEAP reporter activity,RAW-Dual [2]; [7],0.845
same,NF-kB SEAP reporter activity,RAW-Dual [2]; [8],0.455
COCCCOc1ccnc(C[S+]([O-])c2nc3ccccc3[nH]2)c1C (configuration not stated) (library stock concentration (final ~1000-fold dilution): 10 mM),NF-kB SEAP reporter activity,RAW-Dual [3]; agonist: LPS (TLR4) 0.1 ug/mL,1.25
same,NF-kB SEAP reporter activity,RAW-Dual [3]; [6],1.14
same,NF-kB SEAP reporter activity,RAW-Dual [3]; [7],0.738
same,NF-kB SEAP reporter activity,RAW-Dual [3]; [8],0.853
COCCCOc1ccnc(C[S+]([O-])c2nc3ccccc3[nH]2)c1C (configuration not stated),NF-kB SEAP reporter activity,RAW-Dual [1]; [10],0.99
CC(C)=CCC/C(C)=C\CO (library stock concentration (final ~1000-fold dilution): 10 mM),NF-kB SEAP reporter activity,RAW-Dual [3]; agonist: LPS (TLR4) 0.1 ug/mL,0.918
same,NF-kB SEAP reporter activity,RAW-Dual [3]; [6],1.1
same,NF-kB SEAP reporter activity,RAW-Dual [3]; [7],1.09
same,NF-kB SEAP reporter activity,RAW-Dual [3]; [8],1.17
CC(C)=CCC/C(C)=C\CO,NF-kB SEAP reporter activity,RAW-Dual [1]; [9],1.01
same,NF-kB SEAP reporter activity,RAW-Dual [1]; [10],1.05
CC(Cc1ccc(O)c(O)c1)C(C)Cc1ccc(O)c(O)c1 (configuration not stated),NF-kB SEAP reporter activity,RAW-Dual [1]; [5],1.15
same,NF-kB SEAP reporter activity,RAW-Dual [1]; [4],0.895
CC(Cc1ccc(O)c(O)c1)C(C)Cc1ccc(O)c(O)c1 (configuration not stated) (library stock concentration (final ~1000-fold dilution): 10 mM),NF-kB SEAP reporter activity,RAW-Dual [2]; agonist: LPS (TLR4) 0.1 ug/mL,0.484
same,NF-kB SEAP reporter activity,RAW-Dual [2]; [6],0.406
same,NF-kB SEAP reporter activity,RAW-Dual [2]; [7],0.617
same,NF-kB SEAP reporter activity,RAW-Dual [2]; [8],0.262
